26 compounds from PMC4336329 (PLoS ONE, 2015) can be followed below.

Among all 310,000 compounds or so, about 14,000 (4.5%) showed an effect of 50% or more. The effect is printed as a negative number. The list shows a part of the results.
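Further: peak tail current of the secondary pulse compared with the same well before compound.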

Sequence of human ether-à-go-go-related gene (hERG) potassium channel (Q12809 whole entry, looked up): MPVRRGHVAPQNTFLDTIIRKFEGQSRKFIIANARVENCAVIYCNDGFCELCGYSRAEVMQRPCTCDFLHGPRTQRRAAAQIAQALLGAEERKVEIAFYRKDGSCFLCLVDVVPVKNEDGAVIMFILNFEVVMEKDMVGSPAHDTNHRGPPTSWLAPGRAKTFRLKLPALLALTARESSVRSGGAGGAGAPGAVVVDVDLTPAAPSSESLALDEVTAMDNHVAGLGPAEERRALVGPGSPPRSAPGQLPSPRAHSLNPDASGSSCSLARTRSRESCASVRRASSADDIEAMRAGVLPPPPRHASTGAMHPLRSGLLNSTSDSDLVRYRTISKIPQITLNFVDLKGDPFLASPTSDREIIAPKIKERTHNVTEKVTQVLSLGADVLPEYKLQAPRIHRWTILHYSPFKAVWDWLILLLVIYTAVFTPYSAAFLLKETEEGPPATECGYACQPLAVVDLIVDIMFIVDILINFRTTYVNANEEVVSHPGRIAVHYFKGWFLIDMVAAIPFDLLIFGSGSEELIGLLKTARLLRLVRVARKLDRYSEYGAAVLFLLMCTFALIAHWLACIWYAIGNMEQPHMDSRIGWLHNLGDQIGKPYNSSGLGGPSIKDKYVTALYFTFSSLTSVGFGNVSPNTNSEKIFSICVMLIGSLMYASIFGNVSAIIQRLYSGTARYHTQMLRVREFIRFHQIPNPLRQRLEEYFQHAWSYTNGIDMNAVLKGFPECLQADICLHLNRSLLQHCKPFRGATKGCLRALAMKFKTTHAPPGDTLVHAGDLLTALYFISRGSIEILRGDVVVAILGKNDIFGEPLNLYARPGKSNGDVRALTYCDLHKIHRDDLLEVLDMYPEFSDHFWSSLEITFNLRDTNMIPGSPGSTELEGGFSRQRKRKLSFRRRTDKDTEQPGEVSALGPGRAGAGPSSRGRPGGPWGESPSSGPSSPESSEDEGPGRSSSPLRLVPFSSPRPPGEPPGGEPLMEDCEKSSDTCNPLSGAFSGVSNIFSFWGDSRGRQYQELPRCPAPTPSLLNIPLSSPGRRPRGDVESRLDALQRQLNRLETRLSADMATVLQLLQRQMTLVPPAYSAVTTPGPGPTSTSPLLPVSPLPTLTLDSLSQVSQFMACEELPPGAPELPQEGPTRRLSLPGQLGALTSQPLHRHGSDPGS

The assay concerns the target human ether-à-go-go-related gene (hERG) potassium channel (human, UniProt Q12809). The assay is described as follows: primary screen, population patch clamp on CHO cells stably expressing hERG.
For `CCOC(=O)c1nnn(-c2nonc2N)c1CNc1ccc(C)c(Br)c1`, the “hERG current change (%, negative = inhibition) at 10uM” value stood at 3.8%. `Cc1cc(C)cc(NC(=O)C[n+]2ccccc2)c1.[Cl-]`: the “hERG current change (%, negative = inhibition) at 10uM” value is reported as 9.38%. To `Cc1c(Br)cc(C(=O)O)c(C)c1C` belongs 24.1%; to `CCCc1ccc(OCCNC(=O)C2CCCCC2)cc1`, -5.33%; to `CCC(C)[C@H](NC(=O)NCc1cccs1)C(=O)O` (some centres unmarked), 15.8%. To `CC1=C(C(=O)OCc2ccccc2)C(c2ccc([N+](=O)[O-])cc2)NC(=O)N1` (centres unmarked) belongs -10.7%; to `CCNC(=O)CC1C(=O)N(c2ccc(C)cc2)C(=O)N1CCc1ccc(OC)c(OC)c1` (centres unmarked), -28%; to `O=C(Nc1ccc(S(=O)(=O)N2CCCC2)cc1)c1ccc([N+](=O)[O-])cc1`, 1.68%.

As for `Cc1cc(N2CCCC2)ccc1C=C(C#N)C#N`, the “hERG current change (%, negative = inhibition) at 10uM” value is recorded as -13.2%. `COCCNC(=O)c1cnn2c1NC(c1ccco1)CC2C(F)(F)F` (centres unmarked): the “hERG current change (%, negative = inhibition) at 10uM” value worked out at 9.9%.

As to `COc1ccc(N=C(C)c2sc3ccccc3c2O)cc1`, the “hERG current change (%, negative = inhibition) at 10uM” value is recorded as -15.1%.

For `CC1CCCCN1CCNS(=O)(=O)c1ccc2c(c1)oc(=O)n2C` (centres unmarked), the “hERG current change (%, negative = inhibition) at 10uM” value worked out at 23.5%.

With `N/C(Cc1nc(-c2ccc(Br)cc2)cs1)=N\O`, the “hERG current change (%, negative = inhibition) at 10uM” value was 11.3%.

With `COc1ccc(-c2cc(C(F)(F)F)nc(SCc3cccc(C(=O)O)c3)n2)cc1`, the “hERG current change (%, negative = inhibition) at 10uM” value turned out to be 14.1%.

For the compound `COc1cccc(N2C(=NC(=O)c3ccccc3)SC3CS(=O)(=O)CC32)c1` (centres unmarked), the “hERG current change (%, negative = inhibition) at 10uM” value came to 3.44%. As for `COc1ccc(OC)c(NC(=O)COc2ccc(Br)cc2)c1`, the “hERG current change (%, negative = inhibition) at 10uM” value worked out at 13%.

Regarding `Cc1cc(F)ccc1S(=O)(=O)Nc1ccccc1C(=O)NCc1cccnc1`, the “hERG current change (%, negative = inhibition) at 10uM” value was -18.7%. To `CCC(=O)N1CCN(c2nc3ccc(Br)cc3s2)CC1` belongs -44.2%; to `Cc1ccc(C(=O)N2CC(C)CC(C)C2)cc1NC1=NC2CS(=O)(=O)CC2S1` (centres unmarked), 19.9%; to `O=C(Cc1c(F)cccc1Cl)c1ccc(O)cc1O`, 3.62%. As to `COc1ccc2c(c1)c(C(=O)CN1CCN(c3ccccc3)CC1)c(C)n2C`, the “hERG current change (%, negative = inhibition) at 10uM” value is -45.1%. To `Cc1cc(C)cc(OCC(=O)Nc2ccc(F)cc2)c1` belongs 14.7%; to `Cc1ccc(C)n1-c1ccc(-c2nnco2)cc1`, 8.42%; to `COc1ccc(CCN(C)C2CCCN(C(=O)c3ccnn3C)C2)cc1OC` (centres unmarked), -21.1%. To `C/C=C/c1ccc(OCC(=O)Nc2cc(Cl)ccc2-n2cncn2)c(OC)c1` belongs -29.5%; to `O=C(CN1C(=O)NC2(CCCc3ccccc32)C1=O)N1CCc2ccccc2C1` (centres unmarked), -17.3%.
